The RNAGym collection of RNA variant scans (doi:10.7554/elife.90254)
Read counts are not given, so values of variants with three or more changes are uncertain.

B1: LINE1-mini (parent)
chain: GGCAGAGCUCAACACAGCGUGGCAAAGUGGCUGUGGCUAGACUGCC

Variants of: B1
Assay: self-cleavage, relative activity (ratio to wild type); higher = more cleavage; in vitro, sequencing; the parent is a self-cleaving ribozyme

Variant	self-cleavage
GGCUGAGCUCUACACAGCGUGGCAACGUCGCUGUGGCUAGACUGCC	0.01
GGCUGAGCUCCACAGAGCGUGGCAAAGUGGCUGUGGCUAGACUGCC	0.04
GGCUGAGCUCAACACAGCGUGGCUAAAUGGCUGCGGCUAGACCGCC	0.06
GGCUGAGCUCAACACUGCGUGGCAAGGUGGCUGUGGCUAGAUUGCC	0.12
GGCUGAGCUCCACACAGCUUGGCAAAGUGGCUGUGGCUAGACUGCA	0.01
GGCUGAGCUCAACACAGCGUGGCAAGGUGGCUGUGGCUAUACUGCC	0.08
GGCUGAGAUCAACACAGCGUGGCAAAGUGGCUGUGGCUAGACUGCA	0.59
GGCUGAGCUCAACACAGCGUGGCGAAGUGUCUGUGGCUAGACUGCC	2.44
GGCUGAGACCAACACAAUGUGGCAAAGUGGAUGUGGCUAGACUACC	0.01
GGCUGAGCUCCACACAGCAUGUCAAAGUGGCUGUGGCUAGACUGCC	0.02
GGCUGAGCUCACCACAGCGUGGCAAAGUGGCUGUGGCUAGACUGCA	0.03
GGCUGAGGUGAACACAGCGUGGCAAAUUUGCUGUGGCUAAACUGCC	0.01
GGCUGAGAUCAACACCGCGUGGCAAAGUGGCUUUGGCGGGACUGCC	0.13
GGCUGAGCUCGACUCAGCGUAGCAAAGUGGCUGUGGCUAGACUGCC	0.02
GGCUGAGAUCAACUCAGCGUGGCAAAGUGGCUGUCGCUAGUCUGCC	0.26
GGCUGAGUUCAACACCGCGCGGCAAAGUGGCUGUGGCUAGAGUGCC	0.14
GGCUGAGCUCAUCACAGCGUGGCAAAGUGGCAGUGGCUAGACUGCC	0.02
GGCUGAGCUCCAUACAGGGUGGCAAAGUGGCUGUGGCUAUACUGCC	0.03
GGCUGAGUUAAACACAGCGUGGCAAAGUGGCUGUGGCUAGACUGCC	0.06
GGCUGAGCUCUGCACCGCGUGGCAAAGUGGCUGUGGCUAGUCUGCC	0.01
GGCUGAGCUCAACGCAGCGUGGCAAAAUGGCUGUGGCUAGACUGCC	0.05
GGCUGAGCUCAACACAGCGUGGCAACGUGGCUGUGGCUGAACUGCC	0.06
GGCUGAGCUCUACACAGCGUGGCAAAGUGGCUGUGGCUAGACUUCC	0.01

Variant	self-cleavage
GGCUGAGUUAAACACAGCGUGGCAAAGCUGCUGUGGCUAGACUGCC	0.43
GGCUGAGAUCAACACAGUGUGGCAAAGUGGCUGUGGCUAGACUGCC	0.26
GGCUGAGGUCAACACAGCGUGGCAAAUUGGCUGUGGCUAGAUUGCC	0.07
GGCUGAGCUCGACACAGUGGGGCAAAGUGGCUGUGGCUAGACUGCC	0
GGCUGAGAUCAACACAGCGUGGCAAAGUGGCUGUGGCUAGCCUGCC	0.09
GGCUGAGAUCAACACAGCGCGGCAAGGUGGCUGUGGCUAUACUCCU	0.05
GGCUGAGGUCAACACAGCUUGGCAAAGUGGCUGCGGCUAGACUGCC	0.09
GGCUGAGCUCUACACAGCGUGGCAACGUGGACAUGGUCAGACUGCC	0.01
GGCUGAGCUCAACACGGCGUUGCAAAGUCGCUGUGGCUAGACUGCC	0.18
GGCUGAGCUCAACACAGCGUGGCAAAGUGGCUGUGGCUAGGCUCCC	0
GGCUGAGCUCACUACAGCGUGUCAAAGUGGCUGCGGCCAGACUGCC	0.02
GGCUGAGAUCAACUCAGCGUGGCACAGUGGCUGUGGCUAGACUGCC	0.13
GGCUGAGCUCAGCACAGCGUGGCAAAGUGGCUGUGGCUUGACUGUC	0.02
GGCUGAGCUCAUCACAGCGUGGCAAAGUGGCUUUGGCUAGACUGCC	0.04
GGCUGAGCUCAACACUGCGUGGCAAAGUGGCUGUGGCUCGACUGCC	0
GGCUGAGCUCAGCACAGCGUGGCAUAGUGGCUGUGGCUAUACUGCC	0.02
GGCUGAGCUCACCCCAGCGUGGCAAAGUGGCUGUGGCUAGCCUGCA	0.01
GGCUGAGCUCUACACAGCGUGGCAAAGUGGCUCUGGAUAGACUGCC	0.02
GGCUGAGCUCAGCACCGCGUGCCAAAGUGUCUGUGGCUAGACUGCC	0.02
GGCUGAGCUCUACACCGCGUGGCAAAGUGGCUGUGGCUAGACUUCC	0
GGCUGAGCUCGAAACAGCGUGGCAAAGUGGCUGUGGCUAGACUGCU	0.05
GGCUGAGAUCAACACAGCGUGGCAAAGUGGCUGUUGCUAGACUGCC	0.1
GGCUGAGCUCAACGCAGCGUGGCCAAGUGGCUGUGGCUAGACUGCC	0.03

Variant	self-cleavage
GGCUGAGCUCAGCACAGCGUGGCAAAGUGGCUGUGGUUAGACUGCC	0.04
GGCUGAGCUCACCACAUCGUGGCAAAGUGGCUGUGGCUAGACUGCC	0
GGCUGAGCUCAACACAGCGUGGCUAAGAGGCUUUGGCUACACUGCC	0.1
GGCUGAGCUCAACACUGCGUCGCAAUGUCGCUGUGGCUAGACUGCC	0.12
GGCUGAGCUCAACACUGCGUGGUAAAGUGGCUGUGGCUAGACUGCC	0.03
GGCUGAGCUCAACACCGCGUGGCAGAGUGGCGGUGGCUAGACUGCC	0.43
GGCUGAGCUCAACCCAUCGUGGCAAAGUGGCUGUGGCUAGACUGCC	0.16
GGCUGAGCUCAACACCGCGUGGCAAAGUGGCUGUGGAUAGACUGCC	0.01
GGCUGAGCUCGACACAGCGUGGCAAAGUGGUUGUGGGUAGACUGCC	0.01
GGCUGAGGCCAACACGGUGUGGCAAAGUGGCUGUGGCUAGAUUGCG	0.01
GGCUGAGCUCACCACAGCGUGGCAAAGUAGCUGUGGCUAGACUGCC	0.05
GGCUGAGCUCCACACAGCGUGGCAAAGUGGUUGUGGCUAGGCUGCC	0.04
GGCUGAGCUCAGCGCAGCGUGGCAAAGUGGCUGUGGCUAGACUCCC	0.02
GGCUGAGCUCAACACCGCAUGGCAAAGUCCCUGUGGCUAGACUGCC	0.02
GGCUGAGCUCUACACAGCGUGGCAAAGUGACUGUGGCUAGACUGCC	0.05
GGCUGAGCUCGACACAUCGUGGCAAAGUGGCUGUGGCUUGACUGCC	0.06
GGCUGAGCUCAACACAGCGUGGCAUAGUGGAUGUGGCUAGUCCGCC	0.09
GGCUGAGCUCAACACCCCGUGGCAAUGUGGCGGUGGCUAAACUGCC	0
GGCUGAGCUCAACCCAGCGGGGCAAAGUGGCUGUGGCUAGACUGCC	0.3
GGCUGAGCUCAACUCAGCCUGGCAAAGUGGCUGUGGCUAGACUGCC	0.06
GGCUGAGCUCAACACAGCGUGGCACAGUGGCUGUGACUAGACUGCC	0.07
GGCUGAGCUCACCACAGCGUGGUAAAGUGGUUGUGGCUAGACUGCC	0.01
GGCUGAGCUCAACACAGCGUGGCAAGGUGGCUCUGGCUAGACUGUC	0.04

Variant	self-cleavage
GGCUGAGCUCAACACAGCGUGGCAACGUGGAUGUGACUAGAAUUCC	0.02
GGCUGAGCUCAACACAGCGUGGCACAGUGGCUGUGGCUUGACUGCC	0.06
GGCUGAGCUCAACACAGCGUGGCAAAGUGGCUGUGGCUCGGCUGCC	0.04
GGCUGAGAUUAACACAGCGUGGCAAAGUAGCUGUCGCGAGACUGGC	0.03
GGCUGAGCUCAGCACAGCGUGGCAAAGUGGCGGUGGCUAGACUGCC	0.1
GGCUGUGCUCAACACAGCGUGGAAAAGUGGCGGUGGCUAGACUGCC	0.11
GGCUGAGCUCAACACAGCGUGGCGAAGUGGCUGUGGCUAGGCUGCC	0.12
GGCUGAGCUCAACGCAGCGUGGCAAAGUGGCUGGGGCUAGACUGCC	0.06
GGCUGAGAACAAUACAGCGUGGCAAGGUGGCUGUGGGUAGACUGCC	0.26
GGCUGAGCUCCACACAGUGUGGCAAAGUGGCUGUGGCUAGACUGCC	0.01
GGCUGAGCUCUACACAGCGUGGCGAAGUGGCUGUGGCUAGACUGCC	0
GGCUGAGCUCCUCCCAGCGUGGCAAAGUGGCUGUGGCGAGACUGCC	0.02
GGCUGAGAUCAACACAGCGUGGCAAAGUCGCUGUGGCUAGACUGCC	0.08
GGCUGAGCUCAACACAGCGUGGCAAAGUGGCUGUGGCUGGACCGCC	0.01
GGCUGAGCUCAUCACAGGGUGGCAAAGUGGCUGUUGCUAGACUGCC	0.09
GGCUGAGCUCAACACCGCAUGGAAAAGUGGCUGUGCCUAGACUGCC	0.09
GGCUGAGCUCACAACAGCGUUGCAAAGUGGCUGUGGCUAGACUGCC	0.1
GGCUGAGCUCAGCACAGCGUGGCAAAGGGGCUGUGGCUAGACUGCA	0.03
GGCUGAGCUCAACGCAGCGUGGCAAAGUGGCUGGGACUAGACUGCC	0.01
GGCUGAGCUCAACACAGCGUGGCACAGUGCCUGUGGCUAGACUGCC	0.09
GGCUGAGCUCAACACAGCGUGGCAAAGUGGCUGUGGCUAGUAUGCC	0.07
GGCUGAGCUCGACACAGCGCGGCAUAGUGGUUGUGGCUAGACUGCC	0.03
GGCUGAGCUCAACACAGCGUGGCAAUGUGGCUGUGGCUAGAGUGCC	0.24

Variant	self-cleavage
GGCUGAGCUCGACACAGCAUGGCAAAGUGGCUGUGGCUAGACUGCC	0.02
GGCUGAGCUCUACACAGCGUGGCAAAGUGGCUGUGGCUAGACUGUC	0.01
GGCUGAGCUCUACACAGCGUGGCAAAGUGGCUGUGGCUAGACUGAC	0.02
GGCUGAGGUCAACACAGCGUGGCAAAGGGGCUGUAGCUAGACUUCC	0.01
GGCUGAGCUCCACACAGCGUGGCAAAUUGGCUGUAGCUAGAGUGCC	0
GGCUGAGCUCAACACGGCUUGGCAUACUGGCUGAGGCUAGACUGCC	0
GGCUGAGCUCAACACUGCUUGGCAAAGUGGCUGUGGCUAGACUUCC	0.05
GGCUGAGGUCAACACAGCUUGGCACAGGGGCUGUGGCUAGACUGCC	0.02
GGCUGAGCUCAACACGGCGUGGCUAAGUGGCUGUGACUAGACUGCC	0.09
GGCUGAGCUCAACACAGCGUGGCAAUGUGGCUGUGGUUAGACCGCC	0.03
GGCUGAGCUCAUCACAGCGUGGCAAGGUGGCUGUGGCAAGACUGCC	0.32
GGCUGAGUUCAACUCUGCGUGGCAAAGUGGCUGUGGCUAGACUGCC	0.13
GGCUGAGCUCAUCACAGUGUGGCAAAGUGGCUGUGGCUAGACUGCA	0.17
GGCUGAGCUCCACACAGCGUGGCUAAGUGGCUGUGGCUAGACUUCC	0.03
GGCUGAGCUCAUCACAGCGUGGCAAAGUGGCUGUGGCUAGACUGCG	0.08
GGCUGAGCUCACCACAGCGUGGCAAAGUGCCUGUGGCUAGACUGCC	0.07
GGCUGAGCUCAACCCCGCGUGGCAAAGUGGCUGUUCCUAGACUACC	0.04
GGCUGAGCUCCUCACAGCGUGGCAAAGUGGCUGUGGCUAGACUUCC	0.05
GGCUGAGCUCAUCACAGCGUGGCAAAGGGGCUGUGGCUAGACUGCC	0.16
GGCUGAGUUCAACACAGCGUGGCAAAGUGGCUGUGGCUAGUCUACC	0.35
